# Reference: PubChem BioAssay AID1460 (National Center for Advancing Translational Sciences (NCATS), 2008)
# Hit rate of the full screen: of about 270,000 compounds, about 5,800 (2.1%) were called active. Inconclusive results, whose numbers are uncertain, are shown with a selection of clear calls. Calls follow the shape of the dose curve; as a rule, active = well fitted inhibition curve with a large enough effect; inconclusive = small, poorly fitted or top-dose-only effect; inactive = flat fitted curve, though single readings scatter. A potency beside an inconclusive call is a rough fit, not a confirmed value.
# Molecular target: Microtubule-associated protein tau (Homo sapiens) (UniProt P10636)
# Test: qHTS for Inhibitors of Tau Fibril Formation, Thioflavin T Binding; also: nearly all actives have a fitted effect of over 55% in size
# Settings: recombinant tau K18 P301L (four-repeat tau fragment), heparin-induced fibrillization, ThT fluorescence; series mostly up to 57.4 µM; activity, negative = inhibition: at the top concentration
# Method in brief: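 Heparin-induced fibrillization of the P301L-mutant K18 repeat-domain fragment of human tau was followed by ThT binding in quantitative high-throughput format.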
# % is scaled to controls: 0 for no effect and ±100 for the full control effect; potency is read from the fitted curve at half-maximal effect; tags tell the direction and shape of the fitted curve.
# Chain of UniProt P10636 (P10636 whole entry, looked up): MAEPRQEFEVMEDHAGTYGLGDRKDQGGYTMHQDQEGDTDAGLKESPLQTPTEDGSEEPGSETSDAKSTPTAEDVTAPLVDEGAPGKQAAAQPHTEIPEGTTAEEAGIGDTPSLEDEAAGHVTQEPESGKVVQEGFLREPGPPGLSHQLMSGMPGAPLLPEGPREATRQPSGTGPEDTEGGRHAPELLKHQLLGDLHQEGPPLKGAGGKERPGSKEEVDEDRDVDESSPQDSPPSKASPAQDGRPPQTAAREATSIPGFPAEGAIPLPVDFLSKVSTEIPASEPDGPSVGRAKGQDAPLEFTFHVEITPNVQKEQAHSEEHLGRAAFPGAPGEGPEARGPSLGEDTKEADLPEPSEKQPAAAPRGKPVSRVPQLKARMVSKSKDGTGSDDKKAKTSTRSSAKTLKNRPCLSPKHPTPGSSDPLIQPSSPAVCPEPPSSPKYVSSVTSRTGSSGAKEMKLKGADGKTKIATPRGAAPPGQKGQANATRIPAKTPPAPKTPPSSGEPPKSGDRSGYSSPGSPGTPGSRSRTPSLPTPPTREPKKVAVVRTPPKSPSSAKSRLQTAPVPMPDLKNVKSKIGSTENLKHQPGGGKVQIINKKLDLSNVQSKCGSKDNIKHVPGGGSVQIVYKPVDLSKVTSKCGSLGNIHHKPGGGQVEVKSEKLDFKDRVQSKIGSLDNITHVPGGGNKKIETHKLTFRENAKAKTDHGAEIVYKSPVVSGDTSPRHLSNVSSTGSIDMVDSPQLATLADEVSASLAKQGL
Compound,Potency,"activity, negative = inhibition"
CCOC(=O)C(C(=O)OCC)C(C)(C)/C(C)=N\Nc1ccc([N+](=O)[O-])cc1[N+](=O)[O-],"inconclusive: 39.8 µM [inhibitor, single point]",
CO/N=C(\C(=O)N[C@@H]1C(=O)N2C(C(=O)O)=C(CSc3nc(=O)c(O)nn3C)CSC12)c1csc(N)n1 (some centres not stated),"inconclusive: 15.8 µM [inhibitor, partial curve]",
Cc1ccc(CNC(=O)c2ccc3c(c2)NC(=O)C(CS(=O)(=O)Cc2cccc(C)c2)N3)cc1 (configuration not stated),"inconclusive: 14.1 µM [inhibitor, partial curve]",
COc1cc(NC(=S)Nc2ccc(Br)cc2Cl)c(OC)cc1Cl,"inconclusive: 15.8 µM [inhibitor, partial curve]",
CC1(C)CC(N2CCOCC2)=CC(=[N+]2CCOCC2)C1,,inactive: -0.762%
CCCOc1ccc(C(=O)N(Cc2ccc(Cl)cc2)Cc2ccco2)cc1,"inconclusive: 11.2 µM [inhibitor, partial curve]",
CCOC(=O)CSc1nnc(-c2ccc(OC)cc2)o1,"inconclusive: 22.4 µM [inhibitor, single point]",
CC(=O)Nc1cccc(-c2csc(Nc3ccccn3)n2)c1,"inconclusive: 11.2 µM [inhibitor, partial curve]",
CCN(CC)C(=O)c1sc2c(c1C)c(=O)n(-c1ccccc1)c(=O)n2CC(=O)N(CC)c1cccc(C)c1,,inactive: -4.79%
O=C1CC(N(O)c2ccccc2)C(=O)N1c1cc(Cl)cc(Cl)c1 (configuration not stated),"inconclusive: 15.8 µM [inhibitor, partial curve]",
Cc1cc(C)c(OCC(=O)Nc2cc(C(=O)O)cc(C(=O)O)c2)cc1C,,inactive: -7.57%
O=C(NNC(=S)NC(=O)c1ccccc1[N+](=O)[O-])c1ccccc1O,"inconclusive: 31.6 µM [inhibitor, partial curve]",
COc1ccc(C(c2nnnn2Cc2ccccc2)N2CCN(c3ccccc3)CC2)cc1 (configuration not stated),,inactive: -8.46%
COc1ccc([N+](=O)[O-])cc1N(CC(=O)NCC1CCCO1)S(C)(=O)=O (configuration not stated),,inactive: 3.12%
COc1ccc2c(c1)c(=O)c(C(=O)c1ccc(F)cc1)cn2CC(=O)Nc1ccc2c(c1)OCCO2,,inactive: -1.02%
O=[N+]([O-])c1ccccc1-c1nc(-c2ccc(Br)o2)no1,"inconclusive: 17.8 µM [inhibitor, partial curve]",
CC(=O)N(Cc1ccc(F)cc1)Cc1nc2ccccc2c(=O)[nH]1,,inactive: -0.826%
CCCCNC(=S)Nc1ccc([N+](=O)[O-])cc1,,inactive: -12.4%
CCOC(=O)/C(C#N)=C\C1=C(N2CCOCC2)CC(C)(C)OC1,"inconclusive: 39.8 µM [inhibitor, single point]",
CCn1c2ccccc2c2cc(NC(=O)COC(=O)c3cc(S(N)(=O)=O)c(Cl)cc3Cl)ccc21,"inconclusive: 3.55 µM [inhibitor, full curve]",
O=C1CCCC1C(O)c1ccc2ccccc2c1 (configuration not stated),"inconclusive: 8.91 µM [inhibitor, single point]",
Cc1cc(C)cc(C(=O)NC2C(=O)N3C(C(=O)O)=C(CSc4nnc(C)s4)CSC23)c1 (configuration not stated),"inconclusive: 12.6 µM [inhibitor, partial curve]",
O=C(c1ccc(-c2nnc(Nc3ccccc3)c3ccccc23)cc1)N1C[C@H]2C[C@H](C1)c1cccc(=O)n1C2,,inactive: -4.18%

Compound,Potency,"activity, negative = inhibition"
CC(C)(C)C(=O)[C@@H]1[C@@H]2C(=O)N(Cc3ccccc3)C(=O)[C@@H]2[C@H]2c3ccccc3C=CN12,"inconclusive: 4.47 µM [inhibitor, partial curve]",
COc1ccc(N(C(=O)CSCC(=O)Nc2cc(C)on2)C(C(=O)NC2CCCCC2)c2ccc(O)c(O)c2)cc1 (configuration not stated),,inactive: -19.9%
O=Nc1c(O)n(Cc2ccc(Cl)cc2Cl)c2ccccc12,"inconclusive: 28.2 µM [inhibitor, partial curve]",
O=C1/C(=C/N(C(=O)c2ccco2)c2ccc(Br)cc2)Sc2ccccc21,"inconclusive: 12.6 µM [inhibitor, partial curve]",
CC(C)(C)c1ccc(Cn2ccc(-c3ccc4c(c3)OCO4)n2)cc1,,inactive: -12.4%
Cc1ccc(NC(=O)Cn2c(=O)ccc3cc(S(=O)(=O)N4CCCC4)ccc32)cc1C,,inactive: -9.77%
CC1(OC(=O)c2cnc3ccccc3n2)C(=O)C=C2C=C(C3CC3)OC=C2C1=O (configuration not stated),"inconclusive: 28.2 µM [inhibitor, single point]",
CCc1cccc(OCCCCNCCCOC)c1,,inactive: 1.22%
O=C(NCc1cccs1)c1ccc2c(c1)sc1nc(-c3ccccc3)cn12,,inactive: 1.41%
CC(C)c1ccc(-c2noc(SCC(=O)N3CCN(c4ccccc4F)CC3)n2)cc1,"inconclusive: 3.16 µM [inhibitor, full curve]",
CC(C)N1C(=O)CC(Nc2ccc(N3CCOCC3)cc2)C1=O (configuration not stated),"inconclusive: 22.4 µM [inhibitor, partial curve, poor fit]",
COC(=O)[C@H](Cc1ccccc1)NC(=O)[C@@]1(C)C[C@@H]1[C@@H](NC(=O)OCc1ccccc1)c1ccccc1,"inconclusive: 25.1 µM [inhibitor, partial curve, poor fit]",
O=C(CN1CCN(c2nc(-c3ccc(F)cc3)cs2)CC1)NCc1ccc2c(c1)OCO2,"inconclusive: 17.8 µM [inhibitor, partial curve]",
COCCOC(=O)c1[nH]c2c(c1C)C(=O)CC(c1ccc(N(C)C)cc1)C2 (configuration not stated),"inconclusive: 35.5 µM [inhibitor, single point]",
Cc1nc(N2CCCC2)ncc1C(=O)Nc1ccc(OC(F)(F)F)cc1,"inconclusive: 14.1 µM [inhibitor, partial curve, poor fit]",
COc1ccccc1C(=O)Nc1ccc(Br)cc1C,"inconclusive: 1.58 µM [inhibitor, full curve]",
CCOC(=O)c1cc(-c2ccc(F)cc2)n(CCC(=O)Nc2nc3cc(C)c(C)cc3s2)c1C,,inactive: -6.26%
COC(=O)c1ccc(NC(=O)COc2ccccc2OC)cc1,"inconclusive: 39.8 µM [inhibitor, single point]",
COC(=O)C1=C(C)NC(=O)/C1=C\c1cccs1,"inconclusive: 20 µM [inhibitor, partial curve]",
CCOC(=O)C1=C(C)N=C2c3ccccc3C(=O)C2C1c1ccc(C)cc1 (configuration not stated),"inconclusive: 5.01 µM [inhibitor, full curve, poor fit]",
C(=N\N(Cc1ccccc1)c1ccccc1)/c1ccco1,,inactive: -15.8%
CN(C(=O)COc1ccccc1)c1nnc(C23CC4CC(CC(C4)C2)C3)s1,,inactive: -0.647%
O=C(Nc1ccc(F)cc1)c1ccc2nsnc2c1,"inconclusive: 44.7 µM [inhibitor, single point]",

Compound,Potency,"activity, negative = inhibition"
CCOC(=O)/C(=C\c1ccccc1)C(=O)c1cc(C(C)=O)c(Nc2ccccc2)s1,"inconclusive: 22.4 µM [inhibitor, partial curve]",
Brc1ccc(CN2CCc3nc(Nc4ccccc4)ncc3C2)s1,"inconclusive: 7.94 µM [inhibitor, single point]",
Oc1ccc(/C=N/Nc2cccc3cccnc23)c(O)c1,active: 6.31 µM,
COc1ccc2nc(N=Nc3ccc(O)c4ccccc34)sc2c1,active: 2.51 µM,
Cn1c(SCC(=O)N(Cc2ccccc2)C(C)(C)C)nc2ccccc21,"inconclusive: 28.2 µM [inhibitor, single point]",
Cc1ccc(N2CCN(/N=C/c3cccs3)CC2)cc1,"inconclusive: 2.82 µM [inhibitor, partial curve]",
N#CCSc1nn(-c2ccc(F)cc2)c(=S)s1,"inconclusive: 35.5 µM [inhibitor, single point]",
Cc1cccc(-n2cc(-c3ccc([N+](=O)[O-])cc3)[nH]c2=S)c1,"inconclusive: 0.398 µM [inhibitor, partial curve]",
Cc1cccc(N(C)S(=O)(=O)c2nnc(NC(=O)C(C)(C)C)s2)c1,"inconclusive: 8.91 µM [inhibitor, partial curve]",
O=C(CN1CCOCCOCCN(CC(=O)Nc2ccccc2)CCOCC1)Nc1ccccc1,,inactive: -15.4%
CCOC(=O)COc1ccccc1/C=C\[N+](=O)[O-],"inconclusive: 11.2 µM [inhibitor, partial curve]",
COc1ccc(N2Cc3cccc(C(=O)N4CCN(C(=O)c5ccco5)CC4)c3C2=O)cc1,,inactive: -4.23%
N#Cc1c(N)n(CCNC(=O)c2cccs2)c2nc3ccccc3nc12,"inconclusive: 31.6 µM [inhibitor, partial curve]",
COc1ccc(S(=O)(=O)N(C)CC(=O)NCc2ccco2)cc1,"inconclusive: 39.8 µM [inhibitor, single point]",
Cc1ccc(NC(=O)C2=C(c3ccccc3)S(=O)(=O)CCS2(=O)=O)cc1,active: 28.2 µM,
Cc1ccc2nc(NC(=O)C3CCCN(S(=O)(=O)c4cccc5nsnc45)C3)sc2c1 (configuration not stated),"inconclusive: 14.1 µM [inhibitor, partial curve]",
CCC(CC)NC(=O)c1cccc([N+](=O)[O-])c1C,,inactive: 13%
COc1ccc(NCC(=O)Nc2ccc(C#N)cc2)cc1Cl,"inconclusive: 12.6 µM [inhibitor, partial curve]",
O=S(=O)(c1ccc(Cl)c(NC(=S)Nc2cccc(O)c2)c1)N1CCOCC1,"inconclusive: 15.8 µM [inhibitor, single point]",
CCn1ccnc1CN1CCc2c([nH]c3ccccc23)C1C1CCCCC1 (configuration not stated),"inconclusive: 20 µM [inhibitor, partial curve, poor fit]",
Cc1nc(-c2ccccc2)sc1-c1ccc(SCC(=O)Nc2ccccc2)nn1,"inconclusive: 8.91 µM [inhibitor, partial curve]",
